A word on the % Inhibition: it is the relative decrease from the control value, in per cent.

Here are results for 54 molecules from ChEMBL document CHEMBL4888484, “Replenishing the malaria drug discovery pipeline: Screening and hit evaluation of the MMV Hit Generation Library 1 (HGL1) against asexual blood stage Plasmodium falciparum ,using a nano luciferase reporter read-out” (2022).

Molecules are shown by their SMILES. Screen size: about 150,000 compounds; about 540 (0.36%) showed an effect of 50% or more. The list shows a part of the results.

The experiment concerns Plasmodium falciparum. Kind of experiment: Primary screen in NF54 nanoGlo assay, in single point, at 2uM, 72h; a lower Z score goes with more inhibition. It counts as functional, Erythrocyte. As to conditions: timepoint 72 hour.
As to `O=C1CCCN1c1ccc(NC2CCN(CC(F)F)CC2)cc1`, the “% Inhibition” value was -3% and the Z score is reported as 0.43.
The corresponding values for `COc1cccc(Oc2nc(N3CCN(C)CC3)nc3c2CN(C(=O)c2ccc(C(F)(F)F)cc2)CC3)c1` are -6% and 1.13.
Turning to `Cc1cnn(CCNCc2csc(C3CCCC3)n2)c1`, the “% Inhibition” value was 2% and the Z score is listed as -0.27.
The like results for `COc1cc(OC)c(N2CC(C(=O)NC(c3ccccc3OC)c3nccn3C)CC2=O)cc1Cl` (stereo not drawn) were, in that order, -3% and 0.33.
The like results for `FC1(F)C[C@@]12CCN(Cc1nc3c(o1)CCCC3)C2` were, in that order, 10% and -1.
Take `CCn1cc(CN(C)C(=O)c2ncoc2C2CC2)cn1`: the “% Inhibition” value is -16% and the Z score is 2.08.
The corresponding values for `Cc1cc2n(n1)[C@H](C(F)(F)F)CCN2C(=O)c1ccc2ncsc2c1` are -3% and 0.42.
Consider `CC(C)N(CC(=O)Nc1ccccc1)C1CCOCC1`, for which the “% Inhibition” value is recorded as -15% and the Z score worked out at 1.33.
In the case of `Cc1ccccc1C(=O)NCCn1ccnc1-c1cccnc1`, the “% Inhibition” value is 21% and the Z score is given as -2.76.
The corresponding values for `CCCCCN(C(=O)Cc1ccc(O)cc1)C(C)C` are -16% and 2.14.
The corresponding values for `CC(=O)N[C@@H](C)C(=O)NCC1Cc2cc(C)cc(-c3nc4ccccc4s3)c2O1` (stereo partly drawn) are 0% and 0.02.
The like results for `CN(C)c1ccc(CN2CCC3(CC2)NC(=O)c2ccccc2N3)cc1` were, in that order, -5% and 0.64.
With `CN(C)c1nc(N)nc(CN2CCC3(CCCCC3)C2)n1`, the “% Inhibition” value is -15% and the Z score turned out to be 1.49.
The corresponding values for `Cc1ccc(CNC(=O)[C@H]2CCN(c3ccc(C(F)(F)F)cn3)C2)s1` are -16% and 1.53.
Take `Cn1nncc1CNC(=O)N1CCC[C@H]1COc1ccc(F)cc1`: the “% Inhibition” value is 1% and the Z score is on record as -0.17.
For the molecule `CCCCN(C)C[C@H](C)NC1CCC2(CC1)C(=O)Nc1ccccc12` (stereo partly drawn), the “% Inhibition” value was -7% and the Z score is reported as 1.13.
The like results for `O=C(c1ccc(O)nc1)N1CCC(Cc2cccc(F)c2F)CC1` were, in that order, -6% and 0.73.
For `O=S(=O)(c1ccc(Oc2ccc(-c3nnco3)cc2)nc1)N1CCOCC1`, the “% Inhibition” value was -2% and the Z score is listed as 0.33.
The like results for `O=S(=O)(c1ccc(OCC2CC2)cc1)N1CCCC1` were, in that order, 5% and -0.62.
The like results for `Cc1ccccc1CNc1nc(N2CCC(N3CCCCC3)CC2)nc2c1cnn2C` were, in that order, 11% and -2.07.
The like results for `CS(=O)(=O)CC1(NCc2ccc(F)cc2)COC1` were, in that order, -7% and 0.69.
In the case of `CC[C@H](C)C(=O)N(CCc1ccc(S(N)(=O)=O)cc1)S(C)(=O)=O`, the “% Inhibition” value was -2% and the Z score was 0.33.
Take `COCCN(C)S(=O)(=O)c1ccc(C#N)cc1N1CC[C@H](O)C1`: the “% Inhibition” value is given as -3% and the Z score came out at 0.32.
The corresponding values for `CCN(C)S(=O)(=O)N[C@H]1CCCc2nc(N3CCC(CO)CC3)ncc21` are -11% and 1.
The corresponding values for `Cc1cccc(NC(=O)CN2CCN(c3cccc(Cl)c3)C2=O)n1` are 2% and -0.23.
The like results for `CC[C@H]1CN(c2ncnc3c2CCC3)CCN1C(C)C` were, in that order, -2% and 0.29.
Take `CC(C)Cc1ncc2c(n1)CN(c1nnnn1[C@@H](C)c1ccccc1)C2`: the “% Inhibition” value is listed as -5% and the Z score is 0.79.
For `NS(=O)(=O)c1ccc(F)c(Cl)c1`, the “% Inhibition” value is -16% and the Z score turned out to be 1.86.
The corresponding values for `COCC1(C(=O)NC2CCCC(C(=O)N(C)C)C2)CCC1` (stereo not drawn) are -3% and 0.32.
The like results for `CCn1cc(NC(=O)C2CCN(C(=O)[C@@](C)(CC)CNC(=O)OC(C)(C)C)CC2)cn1` were, in that order, -14% and 1.27.
The corresponding values for `Cc1ccc(C)c(C2CN(C(=O)c3snnc3C)C(C)CO2)c1` (stereo not drawn) are -16% and 2.03.
On to `O=C(Nc1cccc2c1N(C(=O)C(F)(F)F)CCC2)C(F)(F)F`, for which the “% Inhibition” value is listed as -9% and the Z score came out at 1.27.
The like results for `CC(C)N(Cc1ccccc1)C(=O)Nc1cccn(C)c1=O` were, in that order, -3% and 0.46.
For `O=C(Nc1ccc(N2CCCC2=O)c(F)c1)[C@@H]1CCCO1`, the “% Inhibition” value is on record as -6% and the Z score is 1.08.
The like results for `CCN(CC)[C@H]1CCN(c2ncc(C(F)(F)F)s2)C1` were, in that order, -7% and 1.08.
The like results for `COCCNC(=O)CC1CCN(C(=O)c2nnc(C(=O)Nc3cccc(Cl)c3)s2)CC1` were, in that order, -29% and 2.56.
The corresponding values for `CCC[C@](C)(NC(=O)OCc1ccccc1)C(=O)O` are -13% and 1.73.
For the molecule `CCOc1ccc(CNC(=O)C2CCCN(S(=O)(=O)N3CC(C)CC(C)C3)C2)cc1OC` (stereo not drawn), the “% Inhibition” value was -6% and the Z score turned out to be 0.99.
The corresponding values for `CC(C)(C)c1cc2cccnc2n1Cc1ccc(Cl)cc1Cl` are -9% and 1.32.
The corresponding values for `Cc1nn(C)c(Cl)c1CN1CCC[C@H](CCC(=O)N2CCN(C)CC2)C1` are -3% and 0.38.
The corresponding values for `Cc1cccc(NC(=O)[C@H]2CCCN(c3nc4c(s3)c(C)nn4-c3ccccc3)C2)c1C` are -7% and 0.96.
`O=C(NCc1noc(CCc2ccccc2)n1)c1ccccc1Br`: the “% Inhibition” value is given as -1% and the Z score amounted to 0.08.
The corresponding values for `CN(C)c1noc(COC(=O)CCc2ccccc2Cl)n1` are 0% and -0.05.
The corresponding values for `Cc1ccc(-c2cc(C(=O)N3CCN(c4ncccn4)CC3)c(C)[nH]2)cc1` are -14% and 2.35.
The corresponding values for `C[C@](C#N)(NC(=O)Cn1cc(C#N)cn1)C1CC1` are -2% and 0.4.
For the molecule `Cc1cccc(OCC(=O)Nc2nc3c(s2)C(=O)NCCC3)c1`, the “% Inhibition” value is reported as -4% and the Z score is given as 0.8.
The like results for `N#Cc1ccc(CN2CCC(N3CCC[C@H](C(=O)N4CCCC4)C3)CC2)cc1` were, in that order, -17% and 2.2.
The like results for `C[C@@H](c1ccccc1)n1ccc(NCc2ccncc2)n1` were, in that order, -9% and 1.46.
The like results for `O=C(CC[C@H]1CCCN(Cc2sc3ccccc3c2Cl)C1)N1CCCC1` were, in that order, -20% and 2.8.
As for `O=C(NCc1ccc(F)cc1)c1cn2c(n1)CCCC2`, the “% Inhibition” value is -9% and the Z score was determined as 1.41.
The corresponding values for `O=C(CN1CCC[C@H]1c1nc2ccccc2s1)Nc1ccccc1Cc1ccccc1` are 28% and -3.23.
The corresponding values for `Cc1noc(C)c1S(=O)(=O)N1CCC[C@H]1C(=O)NC(c1ccccc1)c1ccccc1` are -16% and 2.31.
The corresponding values for `Cc1c(S(=O)(=O)N2CCC[C@H]2c2nc(N(C)C)no2)c2ccccc2n1C` are -5% and 1.02.
Take `COCCOCC(=O)N1C[C@@H]2CC[C@H]1CN(Cc1ccccc1)C2`: the “% Inhibition” value is listed as -2% and the Z score is recorded as 0.25.
